Results on 56 sequences are retold here after the supplement of paper PMC11417369.

Some of the results follow.

The assay has as its system PF3D7_0420300 AP2 domain 1 (GST-tagged). Briefly: gcPBM binding intensity (ln(normalized median fluorescence intensity)); higher = stronger DNA binding. An outline of the steps: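 Plasmodium falciparum DNA-binding domains carrying a GST tag were expressed in E. coli and applied for 1 h, at about 25 μg on average, to an Agilent 4 × 180k array. The array held primer-extended double-stranded 36-bp intergenic genomic probes together with negative controls, and binding took place in 1× PBS with 1% milk, 0.2 mg/ml BSA, 0.5% salmon testes DNA and 0.03% Triton X-100. An Alexa488 anti-GST antibody detected bound protein, and the array was scanned at 488 nm. Binding intensity is taken as the highest Masliner-normalised natural-log median intensity across replicate spots of either probe orientation.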
On to “AAAAAAAAATAATATTGTACACACATAAATTCTTTG [XGTACX_site4315]”, for which the “gcPBM binding intensity (ln)” value was found to be 9.36.

On to “TTAATTAATAGACACACACACATATAAATATAGATT [CACACA_site7143]”, for which the “gcPBM binding intensity (ln)” value came out at 10.

For “GTTTTATTAAAAATGTGTACTTAATTATGAAAAAAA [XGTACX_site4689]”, the “gcPBM binding intensity (ln)” value is 8.91.

For the sequence “GTGTATTTTCTGCGCACACACATGCAAAAAGAAATA [CACACA_site1148]”, the “gcPBM binding intensity (ln)” value worked out at 9.44.

For “GTATCATTAAATTATTGTACATATATATATATATAT [XGTACX_site8809]”, the “gcPBM binding intensity (ln)” value stood at 9.45.

For the sequence “TATTCCTTCTACAATTAAATAATTATAATAAATATA [GTGCAC_negctrl_site26]”, the “gcPBM binding intensity (ln)” value is 8.92.

As to “AACAAAAATAGAAACACACATACATTGGTTTTCTTT [CACACA_site2534]”, the “gcPBM binding intensity (ln)” value was 9.44.

Regarding “TATTTTTGTATATATTTATTCTTATTTTACAGGAAA [TGCATGCA_negctrl_site472]”, the “gcPBM binding intensity (ln)” value was found to be 9.12.

With “ACATTTAAGTTTAGCTGTACATATTCATCATAATTA [XGTACX_site37]”, the “gcPBM binding intensity (ln)” value was determined as 9.32.

On to “AGTTTTATGTAGTGTTGTACTTTATACAAATATATT [XGTACX_site614]”, for which the “gcPBM binding intensity (ln)” value is 9.51.

With “GCGGGTTTATCTTTCGCACACCTTACATTTTAGAAT [CACACA_site2015]”, the “gcPBM binding intensity (ln)” value came out at 9.41.

As to “ATATCACATTCCACGGTACACACTAAAAGAAAAATC [CACACA_site3611]”, the “gcPBM binding intensity (ln)” value was 9.61.

As to “ATAAATCAAAGGCACACACACAAAAAAAAAAAAAAA [CACACA_site160]”, the “gcPBM binding intensity (ln)” value was determined as 9.82.

As for “TGTTTTTTATATTACTGTACATGTTTTGGAATAATA [XGTACX_site4716]”, the “gcPBM binding intensity (ln)” value stood at 9.28.

As to “ATAAAGCCATACAATACACACATTTGACATGTCCGT [CACACA_site7523]”, the “gcPBM binding intensity (ln)” value was 9.57.

Take “GAAATTTTTAAATACAGTACACACATGGGTTTAAAT [XGTACX_site6124]”: the “gcPBM binding intensity (ln)” value amounted to 9.47.

Turning to “ATACTTCAATCTATTTGTACATATTTTTTAAAACCA [XGTACX_site2328]”, the “gcPBM binding intensity (ln)” value was found to be 9.29.

Regarding “AATAATAAAAAATATACACACATATATAAATAAATA [CACACA_site6164]”, the “gcPBM binding intensity (ln)” value turned out to be 9.77.

Take “TAAGAAAAAAAATAATGTACATATGTATTTGAGAAA [XGTACX_site3569]”: the “gcPBM binding intensity (ln)” value amounted to 9.27.

Take “TATATATATATATATTGTACTAATTGTGCAAATGAG [XGTACX_site682]”: the “gcPBM binding intensity (ln)” value came out at 9.06.

“AAAAAAAAAAAAAAAAAAAAAAAAAAATATATATAT [CACACA_negctrl_site271]”: the “gcPBM binding intensity (ln)” value stood at 9.26.

In the case of “TGCTACTTATAAATAGAACACACATAAGTGTATTTG [CACACA_site9253]”, the “gcPBM binding intensity (ln)” value is 9.31.

In the case of “AAGAAAAAAAAAAAAAAAAAAAAAAAAAAGGAAAAA [GTGCAC_negctrl_site174]”, the “gcPBM binding intensity (ln)” value amounted to 9.04.

For the sequence “ATTTTTTTTTTTATGTGTACATATATTTTTTTAATT [XGTACX_site7921]”, the “gcPBM binding intensity (ln)” value turned out to be 9.51.

As for “ATTTAATTTATAAAAACACACACAGGTAAAAAGGTG [CACACA_site8306]”, the “gcPBM binding intensity (ln)” value amounted to 9.88.

Regarding “AAGAAAAAATAAACATGTACATAAATATATATATAT [XGTACX_site304]”, the “gcPBM binding intensity (ln)” value was found to be 9.51.

As to “TAAGGCCCTTTTCATCGTACAGTAAAATATAAATAA [XGTACX_site1278]”, the “gcPBM binding intensity (ln)” value turned out to be 9.04.

Regarding “CATACTGTGATAGCACCACACACGCAAAAGAGGGTA [CACACA_site8285]”, the “gcPBM binding intensity (ln)” value was 9.52.

For “CAAATACATGTGTAAAGTACATATTAATAAGTCTTT [XGTACX_site6342]”, the “gcPBM binding intensity (ln)” value was 9.4.

As for “AATTTAACCCATTTTATAATTATTACCACTATATAT [TGCATGCA_negctrl_site452]”, the “gcPBM binding intensity (ln)” value was found to be 9.48.

“GAAAATTCTTAAGGCACACACATATATAATATATAC [CACACA_site569]”: the “gcPBM binding intensity (ln)” value stood at 9.77.

As to “TATATTAATAGACACACACACATATTTATATTTATA [CACACA_site6859]”, the “gcPBM binding intensity (ln)” value was 10.

With “TACTGTGATAGCACCACACACGCAAAAGTGAGTATA [CACACA_site1109]”, the “gcPBM binding intensity (ln)” value was 9.3.

“TATATTTAGTAAAAAGGTACCATTCTTATTTATATT [CACACA_negctrl_site1165]”: the “gcPBM binding intensity (ln)” value is 9.13.

Turning to “TTTCAGCCAAACGATAAACTACGACACTTGAACGAA [CACACA_negctrl_site1747]”, the “gcPBM binding intensity (ln)” value came to 9.14.

On to “ATATATATATATATATGTACATATTATATATGAACG [XGTACX_site1585]”, for which the “gcPBM binding intensity (ln)” value was found to be 9.25.

Consider “ATATATTTTTTTTCTTCACACACATGAATTATATAT [CACACA_site9053]”, for which the “gcPBM binding intensity (ln)” value is 9.85.

For “AATAATAGAAAAAGGTGTACTTATAAACATATACAC [XGTACX_site6921]”, the “gcPBM binding intensity (ln)” value was found to be 9.5.

“GTAATTATTATTAATAGTACACACTATGGCATTTCA [XGTACX_site5192]”: the “gcPBM binding intensity (ln)” value came out at 9.33.

“ATAAGAAGGAACATAAATATATCATAAAAAAAAAAA [GTGCAC_negctrl_site169]”: the “gcPBM binding intensity (ln)” value stood at 9.26.

In the case of “TAAAATTTTTTATTCACACAAATATAGTTATATATA [CACACA_site5348]”, the “gcPBM binding intensity (ln)” value turned out to be 8.91.

Consider “AAATTAATATAAATATGTACATAAATAATAAAATAT [XGTACX_site6131]”, for which the “gcPBM binding intensity (ln)” value was 9.42.

As for “GGAGGTTGTTATAAAAGTACAAAAAGTTGCAATTTT [XGTACX_site7351]”, the “gcPBM binding intensity (ln)” value is 9.11.

Regarding ATTTTTCAAACTTTAGTGCAATGAAAGAAAGAAAAA, the “gcPBM binding intensity (ln)” value was 8.95.

Turning to “AAGGAATAAAGAAGTTGTACATAATTTGTATCATCC [XGTACX_site3891]”, the “gcPBM binding intensity (ln)” value turned out to be 9.42.

Take “GTTTTCCTTCCCTTTCCCCCTCAAAAAAAGGGAACA [TGCATGCA_negctrl_site436]”: the “gcPBM binding intensity (ln)” value amounted to 9.02.

In the case of “TCATTATATACAATATGTACATATATGTAATAAACA [XGTACX_site4611]”, the “gcPBM binding intensity (ln)” value came to 8.99.

Take “AAAGGATATGCTTCATATATATATTGTTATATATGT [CACACA_negctrl_site1672]”: the “gcPBM binding intensity (ln)” value amounted to 9.24.

For “AAAGAATTCATTATTTGTACTTAAATAAATAAATAA [XGTACX_site5932]”, the “gcPBM binding intensity (ln)” value was found to be 8.76.

On to “AGAAAGAAAGAATACACACACACATATATATATATC [CACACA_site3744]”, for which the “gcPBM binding intensity (ln)” value was determined as 10.4.

Turning to “ATAACACAAAAAGGGGGTACAATAAAAAAAAAAAAA [XGTACX_site1652]”, the “gcPBM binding intensity (ln)” value was 9.1.

On to “TATTTATATAGGTATACACACATACAAATATGTAAA [CACACA_site7705]”, for which the “gcPBM binding intensity (ln)” value came out at 9.29.

Consider “AATACCTATAATACAACACACAAGTAATATAAACCT [CACACA_site7661]”, for which the “gcPBM binding intensity (ln)” value was determined as 9.82.

Regarding “TTTAAAATAAATATTACACACAAAATATTAAAAAGC [CACACA_site2129]”, the “gcPBM binding intensity (ln)” value was determined as 9.74.

For “ATATATACATATGGGTGTACATATGCACATATATAT [XGTACX_site8437]”, the “gcPBM binding intensity (ln)” value came out at 9.31.

Turning to “ACAAAAAAAAACGTGGTGCATTAATAATATTGTATA [GTGCAC_site9469]”, the “gcPBM binding intensity (ln)” value is 9.43.
